# Out of some 360,000 compounds screened, about 520 (0.14%) were called active. Inconclusive means that the source gave no clear call. Such entries were picked first, then a sample of the others. Calls come from the whole dose curve; as a rule, active = well fitted inhibition curve with a large enough effect; inconclusive = small, poorly fitted or top-dose-only effect; inactive = no such curve, though single readings can be large or run the other way. No potency is given beside an inconclusive call; the fits are too rough.
# Target: Rap guanine nucleotide exchange factor 3 (Homo sapiens) (UniProt O95398)
# Assay: qHTS for Antagonist of cAMP-regulated guanine nucleotide exchange factor 3 (EPAC1): primary screen; note: nearly all actives have a fitted effect of over 50% in size;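 for activity change, negative = inhibition: plate controls were vehicle for no effect and positive control for full effect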
# Conditions: EPAC1 GEF assay, Rap1b-BODIPY-GDP exchange fluorescence; activity change, negative = inhibition: at 115 µM (top of the series)
# Potency is the fitted concentration of half-maximal effect; tags give direction and shape of the fitted curve.
# Chain of UniProt O95398 (O95398 whole entry, looked up): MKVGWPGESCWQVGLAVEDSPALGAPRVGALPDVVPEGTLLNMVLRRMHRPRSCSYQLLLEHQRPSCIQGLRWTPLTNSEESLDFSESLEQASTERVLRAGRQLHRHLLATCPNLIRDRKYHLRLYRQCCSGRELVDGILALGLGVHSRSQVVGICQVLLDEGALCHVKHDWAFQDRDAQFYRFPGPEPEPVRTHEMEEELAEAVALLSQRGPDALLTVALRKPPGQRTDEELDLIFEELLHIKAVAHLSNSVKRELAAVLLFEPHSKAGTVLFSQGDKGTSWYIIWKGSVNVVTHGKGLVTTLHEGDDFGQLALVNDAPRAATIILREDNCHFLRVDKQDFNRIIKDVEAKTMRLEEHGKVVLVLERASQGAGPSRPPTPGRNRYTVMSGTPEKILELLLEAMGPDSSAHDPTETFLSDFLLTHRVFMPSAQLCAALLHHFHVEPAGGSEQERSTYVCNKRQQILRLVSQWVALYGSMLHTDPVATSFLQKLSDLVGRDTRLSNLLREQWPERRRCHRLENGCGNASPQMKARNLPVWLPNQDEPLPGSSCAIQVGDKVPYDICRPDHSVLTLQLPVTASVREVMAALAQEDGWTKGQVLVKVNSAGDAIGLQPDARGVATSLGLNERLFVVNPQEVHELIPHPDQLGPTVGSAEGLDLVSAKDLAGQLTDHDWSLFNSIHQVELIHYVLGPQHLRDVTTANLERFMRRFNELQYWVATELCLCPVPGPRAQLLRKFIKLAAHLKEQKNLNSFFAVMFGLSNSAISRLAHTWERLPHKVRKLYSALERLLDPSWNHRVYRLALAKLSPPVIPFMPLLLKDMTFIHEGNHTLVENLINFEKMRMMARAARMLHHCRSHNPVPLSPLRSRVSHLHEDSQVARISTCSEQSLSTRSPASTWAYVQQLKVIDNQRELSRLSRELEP
SMILES,Potency,"activity change, negative = inhibition"
O=C1NC(=S)SC1=Cc1ccc(Cl)cc1,"inconclusive [inhibitor, single point]",
CC(Sc1ncc(C#N)c(N)n1)C(=O)Nc1ccccc1 (stereo not given),,inactive: 1.02%
Cc1ccc([C@@H]2CC=C(C(=O)O)[C@H](c3ccc(C(C)(C)C)cc3)N2S(=O)(=O)c2ccc(C)cc2)cc1,active: 28.2 µM,
CCOC(=O)C1(CCc2ccccc2)CCN(Cc2ccc(OC)cc2)CC1,,inactive: -8.86%
Nc1ncc(-c2nnnn2-c2ccc(Cl)cc2)c(-c2ccc(Cl)cc2)n1,"inconclusive [inhibitor, partial curve]",
COCCCNc1nc(N)c([N+](=O)[O-])c(Nc2cc(OC)ccc2OC)n1,"inconclusive [inhibitor, full curve, poor fit]",
CC1CCCCN1CC(O)COCc1ccccc1 (stereo not given),"inconclusive [inhibitor, full curve, poor fit]",
O=C(NCC(c1ccco1)N1CCc2ccccc2C1)c1ccc(Cl)cc1 (stereo not given),,inactive: -6.56%
CCOC(=O)C1CCCN(C(=S)NC(=O)/C=C/c2ccc(F)cc2)C1 (stereo not given),"inconclusive [inhibitor, partial curve]",
CCOC(=O)c1c(NC(=O)COC(=O)CCNS(=O)(=O)c2ccccc2)sc(C(=O)NC)c1C,,inactive: 10.4%
O=C(OCc1ccccc1)c1ccccc1O,,inactive: 8.75%
O=C(Cc1csc(-c2ccccc2)n1)Nc1ccc(C(F)(F)F)cc1,"inconclusive [inhibitor, single point]",
CCn1c(C2CCN(S(=O)(=O)c3ccc(OC)cc3)CC2)n[nH]c1=S,"inconclusive [inhibitor, full curve, poor fit]",
Cc1nn(-c2ccccc2)c(Cl)c1C(=O)N1CCN(C)CC1,"inconclusive [inhibitor, single point]",
COc1ccc(C(C)(C)C)cc1NS(=O)(=O)c1cccc2cccnc12,"inconclusive [inhibitor, partial curve, poor fit]",
COc1cc(C2CC(=O)c3c([nH]c(C(=O)OCCOC(C)C)c3C)C2)cc(OC)c1OC (stereo not given),"inconclusive [inhibitor, partial curve, poor fit]",
Cc1ccc(-n2c(O)c(C=Nc3ccccc3-c3n[nH]c(=S)[nH]c3=O)c3ccccc3c2=O)c(C)c1,,inactive: 14.9%
CNc1ccc(Br)cc(C(=O)/C=C/c2ccc3c(c2)OCO3)c1=O,"inconclusive [inhibitor, single point]",
NC1=NC(=O)/C(=C\c2ccc(O)c([N+](=O)[O-])c2)S1,"inconclusive [inhibitor, single point]",
O=C(Nc1ccc(-c2csc(Nc3cccc(C(F)(F)F)c3)n2)cc1)c1ccccc1,,inactive: -40.6%
O=C(CCN1CCN(c2ccccc2)CC1)N/N=C/c1ccc(O)c(O)c1O,active: 79.4 µM,
CN(C)S(=O)(=O)c1ccc(NC(=O)CSc2n[nH]c(=O)n2C2CC2)cc1,"inconclusive [inhibitor, partial curve, poor fit]",

SMILES,Potency,"activity change, negative = inhibition"
Cc1[nH]n(-c2ccccc2)c(=O)c1N=Nc1cccc(S(=O)(=O)N2CCOCC2)c1,"inconclusive [inhibitor, single point]",
O=c1c(-c2ccc3c(c2)OCCO3)coc2cc(OC3OC(CO)C(O)C(O)C3O)ccc12 (stereo not given),,inactive: 3.74%
COc1ccccc1OCCC(=O)OCC(=O)Nc1cccc(Br)c1,"inconclusive [inhibitor, single point]",
CCN1C(=O)N[C@@H](c2ccccc2)[C@H](C(=O)OC)[C@H]1C,"inconclusive [inhibitor, single point]",
CC/C(Cc1ccccc1)=N/NC(=O)CNC(=O)c1ccc(Cl)cc1Cl,"inconclusive [inhibitor, single point]",
COCCN(CCOC)C(=O)c1ccc(CSc2nc3ccccc3s2)cc1,"inconclusive [inhibitor, full curve, poor fit]",
CC(CC(=O)Nc1ccc2c(c1)c(=O)n(C)n2-c1ccc2ccccc2c1)C(F)(F)F (stereo not given),,inactive: -5.1%
COc1ccc(OC)c(-c2cc(C3CCN(C(=O)OC(C)(C)C)CC3)[nH]n2)c1,"inconclusive [inhibitor, partial curve, poor fit]",
COc1ccc2oc(C(=O)Nc3ccccc3N3CCOCC3)c(C)c2c1,,inactive: -18.2%
N#Cc1cccc(NC(=O)CSc2ccc3c4c(cccc24)C(=O)c2ccccc2-3)c1,,inactive: 22.1%
Nc1nc2ccc(OC(F)(F)F)cc2s1,,inconclusive: -30.3% [inhibitor]
COc1cc(/C=C/C(=O)OCC(=O)Nc2ccc(NC(C)=O)cc2)cc(S(=O)(=O)N2CCc3ccccc32)c1OC,"inconclusive [inhibitor, partial curve, poor fit]",
O=C(Nc1ccc(S(=O)(=O)N2CCCC2)cc1)c1cccc(OC(F)F)c1,"inconclusive [inhibitor, single point]",
Cn1nc2c3cc(F)ccc3n(Cc3ccc(F)cc3)cc-2c1=O,"inconclusive [inhibitor, full curve, poor fit]",
Cc1nc2ccc(NC(=O)c3cccc(S(=O)(=O)N(C)c4ccccc4)c3)cc2s1,"inconclusive [inhibitor, single point]",
O=C(O)c1ccc(N/N=C/c2ccc(-c3ccccc3Cl)o2)cc1,,inactive: -0.42%
CCc1nn(C(CC)C(=O)NCCc2ccc(OC)cc2OC)c(=O)c2cc3occc3n12 (stereo not given),"inconclusive [inhibitor, single point]",
CN(C)CCCN(Cc1ccccc1)C(=S)Nc1ccc(F)c(Cl)c1,"inconclusive [inhibitor, partial curve]",
Cc1ccc(CN(C)C(=O)c2cc(COc3cccc(C(F)(F)F)c3)on2)o1,,inactive: -20.3%
COc1ccc(OC)c2c(C)cc(NCCN3CCOCC3)nc12,,inactive: 2.8%
COc1ccc(O)c(C=NCC(C)N=Cc2cc(OC)ccc2O)c1 (stereo not given),"inconclusive [inhibitor, partial curve]",
COc1ccc(OC)c(CCNC(=O)c2ccc3c(=O)[nH]c4c(C(=O)NC(C)C)sc(=S)n4c3c2)c1,"inconclusive [inhibitor, partial curve]",

SMILES,Potency,"activity change, negative = inhibition"
Cc1cccc(N(C)S(=O)(=O)c2ccc3c(c2)C(C)(C)C(=O)N3C)c1,,inactive: -16.3%
COc1cccc(C2C3=C(CC(C)(C)CC3=O)Nc3cc4c(cc32)OCO4)c1 (stereo not given),"inconclusive [inhibitor, single point]",
CC(C)Cn1c(N)c(C(=O)COC(=O)c2cc(-c3ccco3)nc3ccccc23)c(=O)n(C)c1=O,"inconclusive [inhibitor, partial curve]",
COc1ccc(NS(=O)(=O)c2cccc(C(=O)NN=Cc3cc(Br)c(O)c(Br)c3)c2)cc1,"inconclusive [inhibitor, single point]",
CC(=O)N/C(=C\c1ccc2c(c1)OCO2)C(=O)NC(C(=O)O)c1ccccc1 (stereo not given),"inconclusive [inhibitor, single point]",
CSc1ncccc1C(=O)Nc1cccc(S(=O)(=O)N(C)c2ccccc2)c1,,inactive: -10.6%
COc1ccc(N2C(=O)C(CC(=O)Nc3ccccc3)N(Cc3cccs3)C2=O)cc1 (stereo not given),"inconclusive [inhibitor, full curve, poor fit]",
Cc1ccc(CNC(=O)CCn2nc(-c3ccc(Cl)cc3)ccc2=O)cc1,"inconclusive [inhibitor, single point]",
C=CCOC(=O)C1=C(C)NC(SCC(=O)Nc2nccs2)=C(C#N)C1c1ccc(Cl)cc1 (stereo not given),,inconclusive: -17.1% [inhibitor]
O=C1c2ccccc2NC(c2cccc(F)c2)N1Cc1ccco1 (stereo not given),"inconclusive [inhibitor, partial curve]",
CCOC(=O)CN(c1ccccn1)S(=O)(=O)c1ccc(OC)cc1,"inconclusive [inhibitor, single point]",
CC(C)C[C@H](NC(=O)c1nc[nH]c1C(=O)N[C@@H](CC(C)C)C(=O)OC(C)(C)C)C(=O)OCc1ccccc1,"inconclusive [inhibitor, full curve, poor fit]",
Cc1ccc(SCC(=O)Nc2ccc(S(=O)(=O)Nc3ncccn3)cc2)cc1,"inconclusive [inhibitor, single point]",
COc1cccc(-c2ccc3nnc(SCC(=O)Nc4ccc(NC(C)=O)cc4)n3n2)c1,"inconclusive [inhibitor, full curve]",
C=CCOC(=O)C(C#N)c1nc2ccccc2nc1N1CCN(Cc2ccccc2)CC1 (stereo not given),,inactive: -10.5%
C#Cc1ccc([C@@H]2C=C(C(=O)N3CCOCC3)O[C@H](OCC)[C@H]2CCCO)cc1,,inactive: 6.01%
COC(=O)c1cc(NC(=O)COC(=O)CN2C(=O)C3CC=CCC3C2=O)cc(C(=O)OC)c1 (stereo not given),"inconclusive [inhibitor, full curve, poor fit]",
Cc1ccc(CSC2=NCCN2S(=O)(=O)c2ccccc2)cc1,,inactive: 1.79%
CCN1CC=C2C(C#N)=C(N)C(C#N)(C#N)[C@H](c3cccc(OC)c3OC)[C@H]2C1,,inactive: 5.96%
C[C@@H]1CN([C@H](C)CO)C(=O)Cc2cc(NS(=O)(=O)c3ccc(Cl)cc3)ccc2O[C@H]1CN(C)Cc1ccc(C(F)(F)F)cc1,"inconclusive [inhibitor, partial curve]",
Cc1ccc(/C=C2/C(=O)ON=C2c2ccccc2)o1,"inconclusive [inhibitor, partial curve]",

# — PubChem BioAssay AID720709 (National Center for Advancing Translational Sciences (NCATS), 2013)
